This note sets out measurements from paper PMC7819943, “Rice protein-binding microarrays: a tool to detect cis-acting elements near promoter regions in rice”.

Some of the results follow.

The target of this experiment is T1, OsWOX13 (Oryza sativa, UniProt Q5QMM3 1-267).
T1 sequence: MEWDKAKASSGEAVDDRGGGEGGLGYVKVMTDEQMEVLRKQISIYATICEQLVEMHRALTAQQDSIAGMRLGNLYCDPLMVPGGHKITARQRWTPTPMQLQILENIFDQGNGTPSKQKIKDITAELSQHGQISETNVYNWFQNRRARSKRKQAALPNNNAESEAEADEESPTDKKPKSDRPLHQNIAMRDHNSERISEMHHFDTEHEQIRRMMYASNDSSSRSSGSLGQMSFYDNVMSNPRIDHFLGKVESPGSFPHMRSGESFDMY
Put plainly: protein-binding microarray (RPBM); PBS, 2% BSA, 51.3 ng/ul salmon testes DNA, 50 uM zinc acetate, 200 nM TF, 25 C, 1 h; high values mean tight binding. The conditions noted are these: protein: recombinant; tags: N-terminal polyhistidine and DsRed monomer fusion (pET32a); label: CyDye5-dUTP incorporated in the synthesized complementary strand; 3' TTTTT single-stranded linker to array surface; dsDNA, one strand shown. An outline of the steps: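 The binding signal is fluorescence intensity per feature, in arbitrary units, read on an Axon 4000B scanner. Polyhistidine- and DsRed-tagged transcription factors (N-terminal fusions) from E. coli BL21-CodonPlus were purified on Ni–NTA and applied at 200 nM for 1 h at 25 °C to a double-stranded, BSA-blocked custom Agilent array in buffer with 50 µM zinc acetate.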
For the sequence “AATTTACACTTAATTTGCTATTTGCTATACATGTTTTCTACGGAGTCACCTAGTGCAG”, the binding signal was 10800 fluorescence intensity (a.u.). Turning to “GTTAGTAATGTTGATTAGTGCATGGCTTATTTGGTTGCACCGGAGTCACCTAGTGCAG”, the binding signal is 15600 fluorescence intensity (a.u.). Consider “CCCAGAAACTTAATTTCCCCACTCTAGTTCTACTCAACATCGGAGTCACCTAGTGCAG”, for which the binding signal is 3680 fluorescence intensity (a.u.). For “ATAACTGATAGGAAGACAAAACAGTCCAATTTCTAAAACTCGGAGTCACCTAGTGCAG” the value was 15600 fluorescence intensity (a.u.). Then “TGTGATAATTTAGTTACCAAACATACAGTTTTGTGACAATCGGAGTCACCTAGTGCAG”, with 8060 fluorescence intensity (a.u.); and “TCTTAAGATTTTAATTAAATTAAATTTGGCCTAACCTATTCGGAGTCACCTAGTGCAG”, with 19700 fluorescence intensity (a.u.). Then “GACAGATTAATTAAAGAATCATCATTACTGCGATGCGACCCGGAGTCACCTAGTGCAG”, with 16600 fluorescence intensity (a.u.); and “GTAATGAATTGATGGATGATGTGTCTGATTATTGGCACTGCGGAGTCACCTAGTGCAG”, with 47600 fluorescence intensity (a.u.).

“AAGATAATGATGTAGACACGCAATCTGCGCGGGCCCACCACGGAGTCACCTAGTGCAG”: the binding signal is 6040 fluorescence intensity (a.u.). Then “GGTAATGATTTAACACCACCTAATTTATTTTGAACAAGCTCGGAGTCACCTAGTGCAG”, with 20500 fluorescence intensity (a.u.); and “CTATGATTGGCAAATTTCCTCATGACATTAGAGACTAATACGGAGTCACCTAGTGCAG”, with 45700 fluorescence intensity (a.u.). Then “GCGTCACGCAGACTTTGATGATTGATGCATCATGCATCACCGGAGTCACCTAGTGCAG”, with 16300 fluorescence intensity (a.u.); and “AACGTTTTAATTAAGCTTTCGGTTTTGTCCACTACCCCACCGGAGTCACCTAGTGCAG”, with 5150 fluorescence intensity (a.u.). Then “CCTTAATCACACCATTGTAATGATGGCAACGACAAGGCCACGGAGTCACCTAGTGCAG”, with 15400 fluorescence intensity (a.u.); and “CATAATAGATTTATGTGTAATATATCACTTCATAAACATGCGGAGTCACCTAGTGCAG”, with 36600 fluorescence intensity (a.u.); and “GGAGGGAGTAGAATAATGATTGATTTAAGTTAATACTAGCCGGAGTCACCTAGTGCAG”, with 23500 fluorescence intensity (a.u.). With “GTAATTGCTAAAGTTTATCTCTAATATTTCTCGACGAGATCGGAGTCACCTAGTGCAG”, the binding signal was 5280 fluorescence intensity (a.u.). With “GTATAAATTGATTATTTTATTGAACCGATGGTTGAAGTGACGGAGTCACCTAGTGCAG”, the binding signal was 35400 fluorescence intensity (a.u.). For “GGTAATTGATTATGCACCTGATCTAGATACATGTACAGCTCGGAGTCACCTAGTGCAG” the value was 61800 fluorescence intensity (a.u.); for “ATGTATTTAATTATAGATTTAATAAAATTAATCTAGTGTTCGGAGTCACCTAGTGCAG”, 17500 fluorescence intensity (a.u.); for “ATAAAGATAGATATATAGATAGATATAGATAGGTAGATAGCGGAGTCACCTAGTGCAG”, 12700 fluorescence intensity (a.u.). Then “TCATTAATTATCACTCTTCATCCGCCCCTACGTATGAAACCGGAGTCACCTAGTGCAG”, with 23700 fluorescence intensity (a.u.); and “GGAAGAAATTAGTGCTCTTCAATTAGAAGTCGACAAGGCACGGAGTCACCTAGTGCAG”, with 4510 fluorescence intensity (a.u.); and “GATAACTGGATATTTACAACAAAATAACTTATGAGGTGAACGGAGTCACCTAGTGCAG”, with 13100 fluorescence intensity (a.u.).

On to “CCAGTCAATTAGTCAAACCCCATCCACCTCTCCTGGCTCTCGGAGTCACCTAGTGCAG”, for which the binding signal was 25700 fluorescence intensity (a.u.). Consider “CTAACATGATCAAATAATCACTCGATTCAATGAGTTACCGCGGAGTCACCTAGTGCAG”, for which the binding signal is 8880 fluorescence intensity (a.u.). As to “TGACGAGAGATTCAAATGTAAAAGTTAACCTAATGAAAACCGGAGTCACCTAGTGCAG”, the binding signal is 6000 fluorescence intensity (a.u.).

For the sequence “AGTAATTGATTGGCCGGATGCTACCGGTAGTTACTGACTACGGAGTCACCTAGTGCAG”, the binding signal is 60500 fluorescence intensity (a.u.). Then “CTTTTATGCGTAATTGCGCCATGATTTGACAATGTGTTGCCGGAGTCACCTAGTGCAG”, with 30400 fluorescence intensity (a.u.); and “TTAATTTATTCCATAGATTGTGTTTTATGATGTACTGTTGCGGAGTCACCTAGTGCAG”, with 24400 fluorescence intensity (a.u.); and “CTACCATCTGATTGGGCTGTGTTTGGGCTCAGGCATTGGCCGGAGTCACCTAGTGCAG”, with 19100 fluorescence intensity (a.u.). Then “CCAAACAAAATTATAAGAAATCATATAATAATAACCAAGACGGAGTCACCTAGTGCAG”, with 4540 fluorescence intensity (a.u.).

For the sequence “TAACTAAATGTACAAACAGACGAGTAATGACATGGAGGTTCGGAGTCACCTAGTGCAG”, the binding signal is 5660 fluorescence intensity (a.u.). For “AAATTGATTTTGACAGACAATTCCTTAAGAGGGCCGCTTACGGAGTCACCTAGTGCAG” the value was 41300 fluorescence intensity (a.u.). For “ATAATGAAATAATTATTGATCAACTATTTAAAGAGTTTATCGGAGTCACCTAGTGCAG” the value was 22700 fluorescence intensity (a.u.); for “ACCTGACCTAATCCATCAATCAAGGAGCATGCTAAAAGGACGGAGTCACCTAGTGCAG”, 25200 fluorescence intensity (a.u.). For “CATAAACATCAAATAAAATGAGCTAACATTAATACAGGTCCGGAGTCACCTAGTGCAG” the value was 3210 fluorescence intensity (a.u.).

On to “TTACATAATCTTAATCTTCATCTATCATGGCCCCTCTCACCGGAGTCACCTAGTGCAG”, for which the binding signal was 4160 fluorescence intensity (a.u.). Take “ACTCCACACACTGATCAACACTAATCAGCATGTACATTTGCGGAGTCACCTAGTGCAG”: the binding signal is 4090 fluorescence intensity (a.u.). Then “TTTCACCGTCAATTCTCTCGTGTAAACTCCCAATCCCCTTCGGAGTCACCTAGTGCAG”, with 5490 fluorescence intensity (a.u.). Then “GGAAGCAAATTAACTGAAGTTTTGCGGGATTCCTTCATTGCGGAGTCACCTAGTGCAG”, with 9480 fluorescence intensity (a.u.); and “CTGCTTAACATTTTAGATTACCACATAATGTTAACTCCAACGGAGTCACCTAGTGCAG”, with 10400 fluorescence intensity (a.u.).
